Results published in patent US10544112B2, “Identification of ebsulfur analogues with broad-spectrum antifungal activity” (priority 2017, dated 2020).
At least one compound was matched to its structure with a doubt left. Some entries share one result that the patent states for a list of compounds.

Tests used:
Candida strains (A-J) = experiment: Antifungal MIC, summary over panel of Candida strains; type: cell-based; settings: for MIC values against Candida strains, range: Candida strains A-J
Method: (§1) Fungal MIC determination experiments were performed using untreated 96-well plates (Corning). Cells were counted either by using a hemocytometer (Hausser Scientific, Horsham, Pa., USA) or by measuring optical density at attenuance of 600 nm (OD600) by using a Genesys 20 spectrophotometer (Thermo Scientific, Waltham, Mass., USA). Spectrophotometric and colorimetric measurements in 96-well plates were performed using a SpectraMax M5 spectrometer (Molecular Devices, Sunnyvale, Calif., USA).
Yeast strains Candida albicans ATCC 10231 (strain A), C. albicans ATCC 64124 (strain B), and C. albicans ATCC MYA-2876(S) (strain C) were kindly provided by Dr. Jon Y. Takemoto (Utah State University, Logan, UT, USA). C. albicans ATCC MYA-90819(R) (strain D), C. albicans ATCC MYA-2310(S) (strain E), C. albicans ATCC 1237(R) (strain F), C. albicans ATCC MYA-1003(R) (strain G), Candida glabrata ATCC 2001 (strain H), Candida krusei ATCC 6258 (strain I), and Candida parapsilosis ATCC 22019 (strain J) were obtained from the American Type Culture Collection (ATCC, Manassas, Va., USA). The (S) and (R) indicate that ATCC reports these strains to be susceptible (S) and resistant (R) to ITC and FLC. The filamentous fungal strains Aspergillus flavus ATCC MYA-3631 (strain K), and Aspergillus terreus ATCC MYA-3633 (strain M) were also obtained from the American Type Culture Collection (ATCC, Manassas, Va., USA). Aspergillus nidulans ATCC 38163 (strain L) was kindly provided by Dr. Jon S. Thorson (University of Kentucky, Lexington, Ky., USA), respectively. Yeast strains were cultured at 35° C. Filamentous fungal strains were cultured at 25° C. and the spores were harvested. All fungal strains were cultured in RPMI 1640 medium (catalog # R6504, Sigma-Aldrich Chemical Co., St. Louis, Mo.) buffered to pH 7.0 with 0.165 M morpholinepropanesulfonic acid (MOPS) buffer (Sigma-Aldrich Chemical Co.).
The MIC values against fungal strains were determined based on a previously published protocol. MIC values for ebsulfur (2a) analogues against fungal cells were evaluated in 96-well plates as described in the CLSI document M27-A3 with minor modifications. […] Therefore, potato dextrose broth (PDB) was used to grow the yeast inocula of all strains tested, which were later diluted in RPMI 1640 medium to perform determination of MIC values. […] The tested compounds (10 mg/mL) were diluted to the working stocks (500 μg/mL) by addition of DMSO. Two-fold serial dilution of the working stocks was prepared by addition of RPMI 1640 medium (100 μL) and cell suspension (100 μL) to 96-well microtiter plate to achieve final drug and inoculum concentrations ranging from 12.5-0.02 μg/mL and 5×10^3 CFU/mL, respectively. Plates were incubated for 48 h at 35° C. […]

[1] = system: Aspergillus strains (K-M); experiment: Antifungal MIC, summary over Aspergillus strains; type: cell-based
Method: as §1
Yeast strains Candida albicans ATCC 10231 (strain A), C. albicans ATCC 64124 (strain B), and C. albicans ATCC MYA-2876(S) (strain C) were kindly provided by Dr. Jon Y. Takemoto (Utah State University, Logan, UT, USA). C. albicans ATCC MYA-90819(R) (strain D), C. albicans ATCC MYA-2310(S) (strain E), C. albicans ATCC 1237(R) (strain F), C. albicans ATCC MYA-1003(R) (strain G), Candida glabrata ATCC 2001 (strain H), Candida krusei ATCC 6258 (strain I), and Candida parapsilosis ATCC 22019 (strain J) were obtained from the American Type Culture Collection (ATCC, Manassas, Va., USA). […]
The MIC values against fungal strains were determined based on a previously published protocol. MIC values for ebsulfur (2a) analogues against fungal cells were evaluated in 96-well plates as described in the CLSI document M27-A3 with minor modifications. […]

[2] = system: Murine red blood cells (mRBCs); experiment: Hemolytic assay; settings: 1 h at 37° C.
Method: Hemolytic activity was determined as previously described with minor modifications (FIG. 3). […] Compounds were serially diluted in Eppendorf tubes containing H2O (100 μL). […] The tubes were then incubated for 1 h at 37° C. Tubes containing dd H2O (200 μL) and triton X-100® (1% v/v, 2 μt) served as negative (blank) and positive (100%) control, respectively. The percent hemolysis was calculated using the following equation: % hemolysis=[(absorbance of sample)−(absorbance of blank)]×100/(absorbance of positive control). Fifty percent hemolysis (HC50) values were defined as the concentrations of compounds required to lyse 50% of the mRBCs.

| Structure (SMILES) | MIC values against Candida strains, range (Candida strains (A-J)) | further results |
| --- | --- | --- |
| CC(C)c1cccc(-n2sc3ccccc3c2=O)c1 [Compound 2h] | 3.13->12.5 |  |
| CCCCCCn1sc2ccccc2c1=O [Compound 3b] | 0.39 to 1.56 µg/mL | MIC values against Aspergillus strains [1]: ≤ 0.02 µg/mL |
| CC(C)Cn1sc2ccccc2c1=O [Compound 3e] | 0.39 to 1.56 µg/mL |  |
| O=c1c2ccccc2[se]n1-c1ccccc1 [Compound 1, ebselen, reference compound] |  | MIC (Candida strains (A-J); strains A, B, C, F, and G): ≥ 12.5 µg/mL; MIC, range (Candida strains (A-J); strains D, E, H, I, and J): 1.56 to 6.25 µg/mL; concentration from which significant hemolytic activity is shown [2]: ≥ 15600 ng/mL |
| CCCCCn1sc2ccccc2c1=O [Compound 3a] | 0.39 to 1.56 µg/mL | MIC values against Aspergillus strains [1]: ≤ 0.02 µg/mL |
| COc1cc(OC)cc(-n2sc3ccccc3c2=O)c1 [Compound 2k] | 3.13->12.5 |  |
| O=c1c2ccccc2sn1-c1cc(Br)cc(Br)c1 [Compound 2i] | 3.13->12.5 |  |
| O=c1c2ccccc2sn1-c1cccc2ccccc12 [Compound 2l] | 6.25->12.5 |  |
| CC(C)CCn1sc2ccccc2c1=O [Compound 3f] | 0.39 to 1.56 µg/mL |  |
| Cc1cc(C)cc(-n2sc3ccccc3c2=O)c1 [Compound 2j] | 3.13->12.5 |  |
